The list shows a part of the results. At the low end of the ranking the order means little.
target: T1, GST-Rok-C97-191 (UniProt O34857); assay: protein binding microarray; details: Rok is a gene silencer of Bacillus subtilis; high values mean tight binding; most listed sequences are background and not binding sites; double strand, one strand shown;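 further: rank score from −0.5 (least bound) to 0.5 (best bound)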
T1 sequence: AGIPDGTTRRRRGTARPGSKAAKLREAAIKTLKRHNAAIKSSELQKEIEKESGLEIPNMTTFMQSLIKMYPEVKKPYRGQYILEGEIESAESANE

Sequence | binding signal [E-score]
CAGTAGGC | -0.0831
ACTAAAAG | 0.312
AAACAGAA | -0.0673
AATAGGAG | 0.0509
AAGAAAGG | -0.107
TAGCGAGA | 0.093
AAGCCTAC | 0.0526
CTACACTA | 0.228
AAGGACCG | -0.244
TATCAAAA | 0.0783
CTAACTTA | 0.162
CAATCGGA | 0.101
AAGACCAC | -0.184
CAGGCTTA | -0.0989
TATCGCGA | 0.109
GAGATTTA | 0.0404
TCCTATCA | 0.177
ATCTGGCA | -0.134
ACGACCAC | -0.0476
GACGACTC | -0.306
GCACTGTA | 0.0283
TCGCGGAA | 0.0502
ACATAACA | 0.222
CGATACTA | 0.271
AACGAACG | -0.166

Sequence | binding signal [E-score]
GCCAACAC | -0.042
AACGTTCC | -0.101
ACTCACTG | 0.00942
AGATCACT | -0.0858
AGTATCTC | 0.185
ACAATATC | 0.0821
ACTGTGAA | 0.0664
CAAACAAG | -0.215
GGAGCGAA | -0.219
ACGAAAAA | -0.0149
CTTCCAAC | -0.19
AATAGCAA | 0.152
ACCTGTAC | 0.0103
AACTTGAG | 0.0682
GCTTCTAC | 0.268
AATCCAAA | -0.0669
ACTGTGGA | -0.0198
CCGAGTCC | -0.192
AACATGCT | -0.0794
GAATGGTC | -0.121
CACTCGCC | -0.331
GTCGGAAA | -0.183
GGTCCACC | -0.317
CTTGGTCA | -0.124
ATTGTTCC | 0.0563

Sequence | binding signal [E-score]
AGGTCCCA | -0.198
AACTGCTT | 0.0877
ACCCTAGG | -0.16
ACGCGAGT | -0.13
CGCGCGCC | -0.303
CCTTAGAC | -0.116
CACTGCAA | -0.0443
CAACAACG | -0.0212
AAGAAGCG | -0.218
TATGTAGA | 0.276
CCAAAAAC | 0.0489
AAAAAACG | 0.0416
TAGTAACA | 0.345
CTAGTATC | 0.111
ATAGATTA | 0.331
ATCAACAG | 0.18
GCGCGTCA | -0.288
ACGCTGAA | -0.00639
AGCACACA | -0.174
AATAACCC | -0.0587
ATATTCCA | 0.198
CAACTGGC | -0.253
GACTTAGC | -0.0763
GGGGAACA | 0.0681
AACGCGAT | 0.0148

Sequence | binding signal [E-score]
CGTTGAAG | 0.0217
CTCCGCCC | -0.339
CAAGCCTG | -0.132
AGTGCACT | 0.024
ATGGCATG | -0.113
CGTTAGCA | -0.205
GGCGAGAC | -0.266
CCACACCA | 0.0485
GCTCCCGA | -0.201
ACCGAAAG | -0.159
GACGTGCC | -0.347
CACGAACA | -0.0928
ATCACAGG | -0.135
AGACTTAG | -0.0257
AGGGTGGG | -0.125
CTTTAACA | 0.072
CGGTCAAA | 0.0606
ACAGGATC | -0.0138
ATTGATGC | -0.0432
AATGATTC | 0.0669
CCTGCCCA | -0.371
CTCCGCAA | -0.13
GATGTCCC | -0.267
AGATGATC | -0.126
ACAGCCGA | -0.00523

Sequence | binding signal [E-score]
CGCTTTGA | -0.0415
TACTGGCA | 0.0047
AGGAGTAA | -0.0565
TATTACGA | 0.252
ATTCATTC | 0.033
GTCTGGTA | 0.0399
AATAAGCA | 0.0965
CGCTTGCA | -0.261
CATTCACG | 0.00676
AAGGAAAG | -0.284
CACGCCGG | -0.382
ATGATAAC | 0.174
GGAGTGTA | 0.029
GGCGGTAC | -0.0765
CCCATGGA | -0.24
ACGACTGA | -0.0257
AGCAGGTC | -0.196
CACGGCCC | -0.408
GTCCTTTA | -0.181
CTGGATCA | -0.00588
AAGCGCTG | 0.0428
ATTAATAC | 0.335
TGGTCCAA | -0.175
GACTCAGC | -0.158
GTCCGAAA | 0.0712

Sequence | binding signal [E-score]
GCGCCCCC | -0.301
GAGAATAC | 0.163
CAAGACTG | -0.0131
GATCGTGC | -0.0453
ATATACGG | 0.218
ATCTCACA | 0.0535
AGAATATG | 0.268
AGTCAGGC | -0.084
CTGCGCAG | -0.0762
CTCACGAC | -0.125
CAGACCCA | 0.0335
AGTTGGTG | 0.00668
AAGCGCGT | -0.151
GATACACA | 0.228
CGACAGGC | -0.362
CGTTCGCC | -0.124
ACAGGTTC | -0.0931
AGGTTTGG | 0.0727
CCCCACCG | -0.267
ATTAAGTG | 0.16
CCCCCATA | -0.212
GACTCCAC | -0.29
GATCCTAC | 0.103
ATAGATAA | 0.325
TGCGTCAA | -0.0045

Sequence | binding signal [E-score]
AGCACCGC | -0.0541
CTCGGGAA | 0.0169
AACAGCCT | -0.182
CGACGCCA | -0.216
CATAGCTC | 0.00142
AGCCAATC | -0.0858
CACGTAGC | 0.0195
CGAACGAA | -0.11
ATTTTTTG | 0.0872
CCACAAGC | -0.034
GTACCAAA | 0.0172
GACGCGGA | -0.0842
TTATATAA | 0.384
GCGACTCA | -0.0909
AAGTACCC | 0.124
CCTACCCC | -0.147
ATTGCGAC | 0.173
CTACCCAC | -0.0303
ATGAATAC | 0.036
TAAATTCA | 0.288
GATGATGA | -0.0239
GCGTCTTA | -0.0438
AATTGGCA | -0.0144
GCGTCCGA | -0.026
GACGTCCA | -0.247

Sequence | binding signal [E-score]
CGATATCA | 0.109
AGCGGCCG | -0.112
GCGCTCTA | 0.0916
CCATCCCG | -0.0704
AGACGCAA | -0.122
CATGCAAG | -0.0362
CATGCATA | 0.071
AAGTCTGG | -0.0849
AGGTCGTC | -0.183
CCTTTTAA | -0.0834
GAAAGCAA | -0.112
CTTCTCAA | 0.00407
AAGAGTAG | 0.212
AAGTCGGA | -0.121
ACTCGCTA | 0.00406
GCGCCACC | -0.169
ATCTAGGC | 0.0159
GATACCCC | -0.11
ATTGCAGA | -0.151
ATGCGGGC | -0.167
GTAATTAC | 0.43
CTCGCGAG | -0.0756
GAATGAGC | -0.132
CTTCATCA | -0.0875
GGATAACC | -0.0647

Sequence | binding signal [E-score]
ATCCTTCA | -0.078
AGAAGTGG | -0.102
CTCGTTGC | -0.146
AATCAGCT | -0.0916
ACTATCCT | 0.0451
ACAGTCAT | -0.0276
CCCCGCGG | -0.269
CAGAGTCC | -0.384
CATACGTC | -0.0219
TAGAGTGA | -0.151
ACCGGATA | 0.0326
AAGACAAC | -0.213
ACCTTAGG | -0.104
ATCCGGAG | -0.0922
CGGTCAAG | -0.131
ATTCAGTG | 0.00617
CCTGCTGC | -0.273
AAGCACAT | 0.0735
TGTACTAA | 0.191
GAGATGCA | -0.169
TAGCGCAA | 0.156
CAGATCCA | -0.202
CCTATCAG | -0.0255
ATCATAAG | 0.109
CGCTACTC | 0.0534

Sequence | binding signal [E-score]
AAATAGAG | -0.0395
ACTGACTC | 0.038
ATGTCTTG | -0.0117
CGCGAAAC | 0.0656
CCCCATTC | -0.119
AAACCGGA | 0.034
AGCCCCGA | -0.198
ACGCGTTA | 0.104
GGACATAC | -0.0461
AACAACAG | -0.0537
CTCAGTCA | -0.291
CACCGGAG | -0.174
CAACAAAC | -0.0116
AACCTCCG | -0.108
AACTATAT | 0.415
TCTCCCAA | -0.0541
CAGCTAGC | -0.0772
AAACTCAA | 0.104
CACATACA | 0.107
CCCTTCAA | -0.108
CTCTCAAG | -0.094
AAGCGCTT | -0.25
AATGATCT | 0.126
CTAGCCTC | -0.000521
AGTCCATA | -0.0806

Sequence | binding signal [E-score]
AAACTCCT | 0.0209
AAGTTACT | 0.123
ACGCACGC | -0.152
AATAGGTC | 0.0562
AAATAGCC | 0.0812
AACGGAAT | 0.121
GTTTCCAA | -0.0629
CGCGTTTC | 0.0796
CAACCAAC | 0.126
CAATTTCA | 0.196
CAAACCGC | -0.0556
ACACTTCA | 0.0497
AAACACGC | -0.0642
ACGTTGTA | 0.158
CTGCGTGA | -0.0106
ACCGTCCA | -0.221
GACCGGGA | -0.0628
GGTTAATA | 0.17
GGTTCTGA | -0.078
AGGCTGCG | -0.213
GGATATTA | 0.12
GAAATACA | 0.226
GAGCGACC | -0.0691
ATACCCGG | 0.22
AGATGAAC | 0.0958

Sequence | binding signal [E-score]
CTCTAAAG | -0.258
GAACAGTC | -0.117
ACACTCAC | -0.00806
AACCTGAG | -0.155
CGCGGCGA | -0.212
CCCAAACC | -0.167
ACAAACTC | 0.00994
ACTGATTA | 0.104
CTACGGCC | -0.14
ATGATGTA | 0.189
AGGAGCCT | -0.299
GTTAAATA | 0.303
TCTGGGCA | -0.19
GGGTGTAA | -0.000395
AAGGGGCT | -0.408
ACTTGCGC | 0.0949
ACGCGCTA | 0.207
CGATACCC | -0.0696
CGACCCAC | 0.0686
ATGAAATA | 0.165
GCAAGGGC | -0.191
AGGAGTTC | -0.0585
GTCCTCTA | -0.266
CTGGGAAG | -0.0965
ATGATACG | 0.141

Sequence | binding signal [E-score]
CCGTAAAC | -0.0202
ATACCAGA | -0.104
ACCCCGAG | -0.212
GAAAGCGC | -0.156
AGTGAGAC | 6.04e-05
ACCCAACG | 0.0271
ATCTCATG | 0.0778
ATCCCCAC | -0.147
CTAACTAA | 0.288
ATGCGTCC | -0.17
ACGGGTAC | -0.00616
ATAGCATC | 0.209
CCGCACGC | -0.306
ATAGTAGG | 0.329
GCTTGAAA | 0.0177
CTGTGAAG | -0.094
CCGCTCAA | -0.107
GGACTCCA | -0.288
GCGTAAGA | 0.0385
GGACCCAA | -0.25
CTTGCGGA | -0.0439
GTCCCAAA | -0.19
AGAATTAT | 0.248
GCTCCGCA | -0.186
GAACGATA | 0.255

Sequence | binding signal [E-score]
GATACATC | 0.144
AGAGCCAG | -0.194
GGACTTGA | -0.0308
CAACACGG | -0.0228
GGTCTAGA | -0.0469
ATCGCGAT | 0.206
CCTAGAGC | -0.0824
CGCATGGC | -0.214
CACGATCC | -0.202
CCTAGTGC | -0.0461
AGTACGAG | 0.125
ACACAGCT | -0.128
CCGGTTCA | -0.203
ATAAGAAT | 0.215
GTCAACGA | -0.108
GAGAGGGC | -0.301
ACGTTCGC | -0.134
CTGTTTGC | -0.128
ACGCGCAT | -0.158

— publication PMC6212790
